Measured values taken from the supplement of paper PMC11417369.
± gives the standard deviation of the averaged measurements. This is one part of the list.

These sequences were tested on PfAP2-LT AP2 domain (GST-tagged) (assay: gcPBM binding intensity (ln(normalized median fluorescence intensity)); higher = stronger DNA binding).
Method in brief: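 For binding intensity, the highest Masliner-normalised natural-log median intensity across replicate spots of either probe orientation was taken. Protein bound to the array was stained with Alexa488 anti-GST antibody and scanned at 488 nm. The protein, GST-tagged P. falciparum DNA-binding domains from E. coli at about 25 μg on average, had been applied for 1 h to an Agilent 4 × 180k array of primer-extended double-stranded 36-bp intergenic genomic probes and negative controls.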
In the case of “TTGATAAAAAAAAAAAAATAAAAAAAAAATAAAAAA [XGTACX_negctrl_site480]”, the “gcPBM binding intensity (ln)” value is reported as 8.26 ± 0.61. “AATAAATATATAAATACACACAAACATACAGATATA [CACACA_site6088]” was tested, and the “gcPBM binding intensity (ln)” value was 9.37 ± 0.35. With “TTTAAAAGATAAAGACTGCACTTTAAGCACACAAAT [GTGCAC_site9752]” the “gcPBM binding intensity (ln)” value was 8.77 ± 0.33. For “TTTATATCGACTCTTCTTTATATAAGTTGTGATGTT [TGCATGCA_negctrl_site362]”, the “gcPBM binding intensity (ln)” value was 8.89 ± 0.38. TAAAGTGTAAAGAAGGTGCTCATTATTTATTTTTTT was tested, and the “gcPBM binding intensity (ln)” value was 8.6 ± 0.33. For “AGTTTCCTTGAGAAAAGTACGTAATACTACATATAT [XGTACX_site818]”, the “gcPBM binding intensity (ln)” value was 8.93 ± 0.43. “AAAAAAGAAACAAACACACATACATACAAACAAACA [CACACA_site142]” was tested, and the “gcPBM binding intensity (ln)” value was 9.57 ± 0.23. For “TTATACTTTTTTTCTTGGTGTAGAAAAAAAAGTTAG [CACACA_negctrl_site1207]”, the “gcPBM binding intensity (ln)” value was 8.15 ± 0.35. In the case of “ATATGATATATTTTATGTACATATAAAACATATATA [XGTACX_site4297]”, the “gcPBM binding intensity (ln)” value is reported as 8.64 ± 0.33. “TTTATATTAGGTCTTGAACGATTTTCATCATTATTA [TGCATGCA_negctrl_site100]” was tested, and the “gcPBM binding intensity (ln)” value was 8.61 ± 0.46. “AATTAATGGAAACAAGTCAAATGATCTTTATGCATA [TGCATGCA_negctrl_site540]” was tested, and the “gcPBM binding intensity (ln)” value was 8.62 ± 0.4. For “AAATTGTAGAAGCGTATTTCTCGAACTGGATGAATA [CACACA_negctrl_site1373]”, the “gcPBM binding intensity (ln)” value was 8.71 ± 0.54. With “TAAAAACGATTTTTTGCACACACATAATAAGCAGAA [CACACA_site3870]” the “gcPBM binding intensity (ln)” value was 9.29 ± 0.37. For “AAAAATGATATGAGTTGTACATAAGTAAGAATTATT [XGTACX_site7089]”, the “gcPBM binding intensity (ln)” value was 8.95 ± 0.47. For “GGACAAGTTAAACGCACACAAATATATACCCCCATA [CACACA_site4996]”, the “gcPBM binding intensity (ln)” value was 9.95 ± 0.3. With “ACAAGTAATTAAGAGTGTACATAACTATAAATCCAA [XGTACX_site5215]” the “gcPBM binding intensity (ln)” value was 9.05 ± 0.54. In the case of “TATAATAAAATATGTACACACATACACCCATATATA [CACACA_site4808]”, the “gcPBM binding intensity (ln)” value is reported as 9.25 ± 0.4. “GATATGATGAGATTGATATTCATAAGAGGATTAATG [GTGCAC_negctrl_site515]” was tested, and the “gcPBM binding intensity (ln)” value was 8.65 ± 0.43. For “TGTATGTATGTATTATTTGTTATTTTAATTTTTTTG [TGCATGCA_negctrl_site256]”, the “gcPBM binding intensity (ln)” value was 8.93 ± 0.47. In the case of “TTTTTTTTTTTTGTGCGTACATACCATTTTAATAAT [XGTACX_site2760]”, the “gcPBM binding intensity (ln)” value is reported as 8.73 ± 0.4. In the case of “CTTTTTTCAAAACACACACACAAGAAAATATATATA [CACACA_site3109]”, the “gcPBM binding intensity (ln)” value is reported as 9.31 ± 0.3. With “GAGATTTATTTATGTGCACACTAGAACAATTGGATC [CACACA_site2090]” the “gcPBM binding intensity (ln)” value was 9.11 ± 0.38. “AAGACATTTTTTAAGGTGCTTTGGAAAAAGGAGTAT [GTGCAC_site9816]” was tested, and the “gcPBM binding intensity (ln)” value was 8.64 ± 0.39. For “TATTATATATCAAAATGTACATTAATTTGAGTAATT [XGTACX_site5434]”, the “gcPBM binding intensity (ln)” value was 8.51 ± 0.33. “GATGTGATGTATTTGGTATTTTTCGATGTTGGTAGG [CACACA_negctrl_site355]” was tested, and the “gcPBM binding intensity (ln)” value was 9.15 ± 0.27. With “TGTTCAGTAGGGCACACACACAACAAAATAAAAAAA [CACACA_site378]” the “gcPBM binding intensity (ln)” value was 9.56 ± 0.48. In the case of “TTTTTGCTATTCTATTATATATATAATATATTTTAC [CACACA_negctrl_site262]”, the “gcPBM binding intensity (ln)” value is reported as 8.79 ± 0.48. “TTACCTCTTTGAAATATACACACTAATCATATCAAC [CACACA_site8778]” was tested, and the “gcPBM binding intensity (ln)” value was 8.85 ± 0.47. In the case of “ATGAGTTACATGGGAAAAATATATATATATATATAT [CACACA_negctrl_site579]”, the “gcPBM binding intensity (ln)” value is reported as 9.8 ± 0.23. TTGTATCCTTAATGCATGCACCAAATAACAAAAGTA was tested, and the “gcPBM binding intensity (ln)” value was 8.71 ± 0.29. With “TTTAAAAGATAAAACACACATACTAATAAAAAACAA [CACACA_site2556]” the “gcPBM binding intensity (ln)” value was 8.88 ± 0.47. For “TTGTTGTATTATTTATGTACATATGTATATGTATAT [XGTACX_site1315]”, the “gcPBM binding intensity (ln)” value was 9.02 ± 0.44. With “TGATAAATATGGAGCACACACACATAAACATACATA [CACACA_site420]” the “gcPBM binding intensity (ln)” value was 9.86 ± 0.4. “ACAGTATTTCGAGATGGTACACATATATATATATAT [XGTACX_site6880]” was tested, and the “gcPBM binding intensity (ln)” value was 9.9 ± 0.13. With “AAAAAAAAAAAAAAAAGGGGGGGAGGGATTGAAAAA [CACACA_negctrl_site193]” the “gcPBM binding intensity (ln)” value was 9.4 ± 0.29. “AATGAGGATATATACACACATACATTAAAAAAATAT [CACACA_site1849]” was tested, and the “gcPBM binding intensity (ln)” value was 9.29 ± 0.46. “ATTATAATTGCATATACACACAAAGGTTCATAACAA [CACACA_site7440]” was tested, and the “gcPBM binding intensity (ln)” value was 8.93 ± 0.38. In the case of “ACATATATAAAATAATGTACATTTTTAAGAATGCGT [XGTACX_site7654]”, the “gcPBM binding intensity (ln)” value is reported as 8.79 ± 0.42. For “TATATATATATATATAAGCTTATAATAAAACAAAAA [XGTACX_negctrl_site568]”, the “gcPBM binding intensity (ln)” value was 8.91 ± 0.4. With “ATAGCAATAATGGAAAGTACAAAAAAACTTGTTATA [XGTACX_site8518]” the “gcPBM binding intensity (ln)” value was 8.79 ± 0.52. For “TGTATTAATAAAAATACACACATCATATTATATAAA [CACACA_site3534]”, the “gcPBM binding intensity (ln)” value was 8.77 ± 0.35. In the case of “CCTTTTAAGAGTTGCACACGTACAAAAAAAAAAAAA [CACACA_site3492]”, the “gcPBM binding intensity (ln)” value is reported as 8.88 ± 0.54. In the case of “GGCGATATAGAACTACGTACTTATACAAATTATAAT [XGTACX_site2307]”, the “gcPBM binding intensity (ln)” value is reported as 8.76 ± 0.39.
